# According to article PMC4336329 (PLoS ONE, 2015):
# Hit rate of the full screen: of about 310,000 compounds, about 2,200 (0.71%) showed an effect of 50% or more. The effect is printed as a negative number. The list shows a part of the results.
# Biological target: human ether-à-go-go-related gene (hERG) potassium channel (human, UniProt Q12809)
# Test: primary screen, population patch clamp on CHO cells stably expressing hERG
# Sequence of human ether-à-go-go-related gene (hERG) potassium channel (Q12809 whole entry, looked up): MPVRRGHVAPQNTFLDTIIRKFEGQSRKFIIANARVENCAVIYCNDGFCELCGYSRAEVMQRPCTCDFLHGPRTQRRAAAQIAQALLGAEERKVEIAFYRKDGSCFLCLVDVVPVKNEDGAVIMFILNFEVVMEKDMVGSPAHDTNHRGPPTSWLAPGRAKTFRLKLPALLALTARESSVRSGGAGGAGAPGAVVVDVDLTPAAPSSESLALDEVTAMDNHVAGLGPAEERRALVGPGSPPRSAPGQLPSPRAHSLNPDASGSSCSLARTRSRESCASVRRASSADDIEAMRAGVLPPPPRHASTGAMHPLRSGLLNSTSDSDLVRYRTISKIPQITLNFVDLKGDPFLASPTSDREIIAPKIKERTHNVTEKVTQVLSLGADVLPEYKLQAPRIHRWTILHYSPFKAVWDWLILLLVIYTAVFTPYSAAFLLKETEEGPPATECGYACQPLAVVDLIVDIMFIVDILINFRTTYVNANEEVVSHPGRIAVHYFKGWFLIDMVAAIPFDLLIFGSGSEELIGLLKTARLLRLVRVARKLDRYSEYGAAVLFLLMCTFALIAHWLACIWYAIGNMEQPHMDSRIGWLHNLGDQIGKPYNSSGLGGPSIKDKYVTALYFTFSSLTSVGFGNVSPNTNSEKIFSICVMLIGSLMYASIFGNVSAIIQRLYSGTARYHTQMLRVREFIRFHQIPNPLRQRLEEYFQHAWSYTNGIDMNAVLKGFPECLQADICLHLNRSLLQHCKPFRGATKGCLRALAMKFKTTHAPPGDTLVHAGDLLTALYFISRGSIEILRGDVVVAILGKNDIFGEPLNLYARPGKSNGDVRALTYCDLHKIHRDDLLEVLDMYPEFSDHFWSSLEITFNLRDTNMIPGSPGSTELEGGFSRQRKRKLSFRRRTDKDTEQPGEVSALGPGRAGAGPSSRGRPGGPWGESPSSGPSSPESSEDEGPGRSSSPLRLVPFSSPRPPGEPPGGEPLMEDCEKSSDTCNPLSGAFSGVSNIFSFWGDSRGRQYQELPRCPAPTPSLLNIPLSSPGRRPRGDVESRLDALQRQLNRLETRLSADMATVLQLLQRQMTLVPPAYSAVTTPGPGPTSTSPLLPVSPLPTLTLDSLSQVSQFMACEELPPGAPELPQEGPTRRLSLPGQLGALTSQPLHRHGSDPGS
row,SMILES,"hERG current change (%, negative = inhibition) at 1uM"
1,CC(=O)c1cc2cc(O)ccc2o1,3.09%
2,O=C(Cc1ccccc1)N1CCN(Cc2ccc([N+](=O)[O-])cc2)CC1,-17.4%
3,CC(C(=O)OCC(=O)c1ccc([N+](=O)[O-])cc1)N1C(=O)C2C3C=CC(C3)C2C1=O (stereo not drawn),12.5%
4,O=C(Nc1ncccn1)C1CCCN1S(=O)(=O)c1ccc(Cl)c(Cl)c1 (stereo not drawn),11.2%
5,COc1ccc(C2NC(=O)C(C#N)=C(S)N2c2ccc(C)cc2)cc1OC (stereo not drawn),15.5%
6,COc1ccc(Cc2nnc(NS(=O)(=O)c3ccc([N+](=O)[O-])cc3)s2)cc1,9.91%
7,COC(=O)c1cccc(NC(=O)Cc2ccccc2[N+](=O)[O-])c1C,-8.27%
8,CCC(C(=O)NCc1ccc(F)cc1)N(CCc1ccccc1)C(=O)c1snc(C(N)=O)c1N (stereo not drawn),4.48%
9,COc1ccc(CCNS(=O)(=O)c2ccc([N+](=O)[O-])cc2)cc1OC,11%
10,CN1CCN(S(=O)(=O)c2ccc(N3CCN(C(=O)c4ccccc4)CC3)nc2)CC1,18.7%
11,CC(=O)Nc1nc(C=C(Cl)Cl)cs1,5.26%
12,Cn1c2ccccc2c2c(C(=O)NCC3CCCO3)cn(C3CCCC3)c(=O)c21 (stereo not drawn),14.1%
13,CCOC(=O)N1CCC(NC(=O)c2cc(S(=O)(=O)NCCc3ccccc3)ccc2F)CC1,3.72%
14,CCOC(=O)c1c(NC(=O)c2cccs2)sc2c1CCCC2,13.2%
15,Cc1ccc(C)c(OCCCCCn2ccnc2)c1,-5.73%
16,O=C(O)/C=C/C(=O)Nc1ccc(S(=O)(=O)Nc2nccs2)cc1,11.6%
17,CCC(=O)c1ccc(OCC(=O)OCC(=O)NC2CCCCCCC2)cc1,16.8%
18,O=C(NN1CCOCC1)c1sc2cccc(F)c2c1Cl,7.3%
19,COC(=O)C(C)(C)ONC(=O)Nc1ccc(C)cc1,-1.44%
20,COc1ccc(CN2CCN(c3ccccn3)CC2)cc1OCc1ccccc1,-22.5%
21,COCCNC(=O)CN(C(=O)CCC(=O)Nc1ccccn1)c1ccc(C)cc1C,7.71%
22,OC1(c2cccnc2)CC2CCC(C1)N2Cc1nnnn1Cc1ccccc1 (stereo not drawn),-4.36%
23,CC1CC(C)CN(C(=O)COC(=O)c2ccc3c(c2)C(=O)N(Cc2ccco2)C3=O)C1 (stereo not drawn),-8.39%
24,CC(=O)c1cccc(NC(=O)COC(=O)c2ccccn2)c1,8.6%
